Results as given in PubChem BioAssay (NCATS).
Inconclusive means that the source gave no clear call. Such entries were picked first, then a sample of the others. Potencies of inconclusive entries are doubtful fits and often do not repeat. Calls of active or inactive are those of the source. Calls come from the whole dose curve; as a rule, active = well fitted curve in the direction sought with a large enough effect; inconclusive = small, poorly fitted or top-dose-only effect, or another doubt; inactive = no such curve, though single readings can be large; an effect the other way counts as inactive or inconclusive.

Experiments:
[1] = COV-362 Cancer Cell Toxicity qHTS against the NCATS CANVASS Library (AID 1347352)
In short: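 qHTS cytotoxicity: compounds tested in 11 concentrations on 1000 seeded cells per well over 72 h; bortezomib served as control; signal from CellTiter-Glo luminescence.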

[2] = HEK293 18hr Apoptosis Induction qHTS against the NCATS CANVASS Library (AID 1347357)
In short: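 HEK293 cells (500 per well, DMEM with 10% FBS) were treated with natural products, incubated 18 hours at 37 degrees C, then caspase-3/7 activity was read by Caspase-Glo luminescence after 15 min at room temperature.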

[3] = system: NAD(P)H diaphorase (Clostridium kluyveri); experiment: Diaphorse counterscreen qHTS: Assay Interference Panel against the NCATS CANVASS Library (AID 1347362); for activity change, negative = inhibition: 0% is about no effect
In short: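 Clostridium kluyveri diaphorase in PBS with 0.01% Tween-20 was preincubated 15 min at room temperature in the dark with compounds (11-point series). Resorufin fluorescence (ex 525/20, em 598/25) was read 5 min after adding resazurin/NADH.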

[4] = MCF7 Cancer Cell Toxicity qHTS against the NCATS CANVASS Library (AID 1347369); settings: activity change, negative = cytotoxicity: at 46 µM (top of the series)
In short: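 MCF7, 500 cells/well; cpds 11-pt qHTS; 72 hr, 37C/5% CO2; CellTiterGlo ATP luminescence.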

[5] = qHTS for Hypoxia signaling pathway (HIF-1) agonists against the NCATS CANVASS Library (AID 1347375)
In short: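 Inducers of HIF-1 signaling were detected in ME-180 cells bearing an HRE-driven beta-lactamase reporter after 17 h compound exposure. Activity came from CCF4-AM FRET emission ratio (460/530 nm) in qHTS format.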

[6] = DH5-alpha competent E. coli microbial cell viability qHTS against the NCATS CANVASS Library (AID 1347377); settings: viability signal change, negative = cytotoxic: at 46.1 µM (top of the series)
In short: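 Cell viability of competent DH5-alpha E. coli is scored from ATP content by luminescence. Cells sit overnight at 37C with compound across an 11-point concentration series.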

[7] = qHTS for Inflammasome Signaling Inhibitors: IL-1-beta AlphaLISA screen against the NCATS CANVASS Library (AID 1347379);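 note: human THP-1 cells primed with LPS then triggered with ATP; secreted IL-1B measured as AlphaLISA emission at 615 nm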
In short: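 Human THP-1 cells were pretreated 1 hr at 37 °C with compounds (up to 57.5 uM final), then stimulated with LPS (250 ng/mL final) and ATP (1.25 mM final). Secreted IL-1B was read by AlphaLISA after 16 hr.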

[8] = J3T Cancer Cell Toxicity qHTS against the NCATS CANVASS Library (AID 1347371);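 for activity change, negative = cytotoxicity: J3T is a canine glioma cancer cell line seeded at 500 cells per well; % is set by controls: 0 for no effect and ±100 for the full control effect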
In short: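 Viability of the J3T glioma line from dog is scored by ATP luminescence after a 72 hr incubation with natural products.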

[9] = target: Nuclear receptor subfamily 1 group I member 3 (Homo sapiens) (UniProt Q14994); experiment: qHTS for Constitutive Androstane Receptor (CAR) Antagonist screened against the NCATS CANVASS Library (AID 1347372)
In short: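 HepG2 cells stably carrying hCAR and a CYP2B6-2.2kb luciferase reporter were exposed to compounds plus 50 nM CITCO for 24hr at 37C. CAR activity was read by ONE-Glo luminescence, with viability measured first by CellTiter-Fluor.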

[10] = qHTS for H2AX Agonists against the NCATS CANVASS Library (AID 1347378)
In short: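 CHO-K1 cells were plated overnight at 37C, then exposed to compounds (concentration series, 0.76% DMSO final) for 3 hr at 37C. Lysates received Eu-cryptate anti-pH2AX (S139) and d2 anti-H2AX antibodies; after 24 hr at room temperature, TR-FRET 665/620 nm ratio was read.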

[11] = system: Zika virus NS2B-NS3 protease (unlinked complex); experiment: Primary screen GU Rhodamine qHTS for Zika virus inhibitors: Unlinked NS2B-NS3 protease assay (AID 1347159); note: nearly all actives have a fitted effect of over 60% in size; for activity change, negative = inhibition: % is set by controls: 0 for no effect and ±100 for the full control effect
In short: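 Noncovalent NS2B hydrophilic domain/NS3 protease complex (25 nM final) in 10 mM Tris-HCl pH 8.0, 0.01% Tween 20, preincubated 15 min with compounds (up to 114 microM), then 1.5 microM Rhodamine110 substrate. Fluorescence change over 15 min fitted to 4-parameter Hill.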

[12] = KB-3-1 Cancer Cell Toxicity qHTS against the NCATS CANVASS Library (AID 1347366); note: nearly all actives have a fitted effect of over 75% in size
In short: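 KB-3-1 cells (500 cells/well) in DMEM + 10% FBS were treated with compounds for 72 hr at 37C, 5% CO2. Viability was read as CellTiter-Glo luminescence after 10 minutes at room temperature.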

[13] = Vero-766 cells viability qHTS against the NCATS CANVASS Library: Counterscreen for Zika virus inhibition assay (AID 1347394); settings: Vero 766 viability, CellTiter-Glo luminescence, 72 h; activity change, negative = cytotoxic: at 46.1 µM (top of the series); note: nearly all actives have a fitted effect of over 60% in size; for activity change, negative = cytotoxic: % is set by controls: 0 for no effect and ±100 for the full control effect
In short: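 Uninfected Vero 766 (African green monkey) cells, 1000/well, attached overnight, then exposed 72 h at 37C to compounds (11-point qHTS). Viability read by CellTiter-Glo luminescence; media-only wells served as 100% inhibition.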

[14] = Redox Reaction Profiling qHTS: Assay Interference Panel against the NCATS CANVASS Library (AID 1347401)
In short: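 Resazurin (5 uM) conversion to resorufin measured with 200 uM DTT in 50 mM HEPES pH 7.3, 50 mM NaCl. Compounds tested in 11-point qHTS series. Fluorescence (ex 525/em 598 nm) read before and after 15 min dark incubation.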

[15] = G06 Cancer Cell Toxicity qHTS against the NCATS CANVASS Library (AID 1347368); note: nearly all actives have a fitted effect of over 60% in size
In short: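 Cytotoxicity toward canine glioma G06 cells is scored from cellular ATP via luminescence after 72 hr compound exposure at 500 cells/well.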

[16] = target: Nuclear receptor subfamily 1 group I member 3 (Homo sapiens) (UniProt Q14994); experiment: qHTS for Constitutive Androstane Receptor (CAR) Agonist screened against the NCATS CANVASS Library (AID 1347373);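 note: every well also contained 1.5 µM PK11195 alongside the test compound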
In short: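 CAR agonism is scored as CYP2B6-promoter luciferase induction in a double-stable transfected HepG2 line, where 1.5uM PK11195 is included in each well. Compounds were tested over a 24hr exposure.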

[17] = qHTS assay for small molecule disruptors of mitochondrial membrane potential screened against the NCATS CANVASS Library (AID 1347389); note: nearly all actives have a fitted effect of over 60% in size
In short: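 Compounds tested in 11-point qHTS series on HepG2 cells for 1 hr; membrane-potential dye added for 30 min at 37C. Lower red-to-green ratio indicates loss of potential.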

[18] = qHTS for ATAD5 Antagonist screened against the NCATS CANVASS Library (AID 1347370); note: nearly all actives have a fitted effect of over 65% in size
In short: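 HEK293T cells with a stably integrated ATAD5-controlled luciferase reporter were exposed to compounds (11-pt) alongside 10 uM 5-fluorouridine as ATAD5 stabilizer for 16hr at 37C. Viability was read by CellTiter-Fluor fluorescence, then ATAD5 by luminescence.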
Potency is the fitted concentration of half-maximal effect; tags give direction and shape of the fitted curve.

Chain of UniProt Q14994 (Q14994 whole entry, looked up): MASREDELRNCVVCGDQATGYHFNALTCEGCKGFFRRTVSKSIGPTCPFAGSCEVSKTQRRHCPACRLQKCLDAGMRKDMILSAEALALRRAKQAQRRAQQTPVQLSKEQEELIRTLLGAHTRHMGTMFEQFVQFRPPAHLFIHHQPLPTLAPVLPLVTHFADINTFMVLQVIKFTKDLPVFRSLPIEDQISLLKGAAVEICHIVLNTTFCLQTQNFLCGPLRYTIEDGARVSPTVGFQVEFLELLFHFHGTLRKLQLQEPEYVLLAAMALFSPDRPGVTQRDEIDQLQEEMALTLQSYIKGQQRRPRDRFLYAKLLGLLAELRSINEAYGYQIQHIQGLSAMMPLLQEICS

## COc1cc(O)c(C(=O)[C@@H]2[C@H](CC=C(C)C)C(C)=CC[C@H]2c2ccccc2)c(O)c1
[1]
  Potency: inconclusive: 21.1 µM [cytotoxic, partial curve, poor fit]
[2]
  Potency: inconclusive: 37.2 µM [activator, partial curve, poor fit]
[3]
  Potency: inactive
[4]
  Potency: inconclusive: 33 µM [cytotoxic, single point]
[5]
  Potency: inconclusive: 26.5 µM [activator, single point]
[6]
  Potency: inconclusive: 23.4 µM [rising, partial curve, poor fit]
[7]
  Potency: inconclusive: 43.2 µM [inhibitor, single point]

## C/C(=C\[C@H](C)C(=O)CCCC1CC(=O)NC(=O)C1)[C@@H]1OC(=O)/C=C/CC/C=C/[C@H](O)[C@@H](O)[C@@H]1C
[4]
  Potency: inconclusive: 2.62 µM [cytotoxic, full curve]
[8]
  Potency: inconclusive: 1.05 µM [cytotoxic, full curve]
[9]
  Potency: active: 3.31 µM
[10]
  Potency: inconclusive: 24.4 µM [activator, partial curve]
[7]
  Potency: active: 6.11 µM

## CC1CCC2(C(=O)O)CCC3(C)C(=CCC4C5(C)CCC(O)C(C)(CO)C5CCC43C)C2C1(C)O (centres undefined)
[11]
  Potency: inconclusive: 35.5 µM [inhibitor, partial curve]

## COC(=O)C1=CO[C@@H](O[C@@H]2O[C@H](CO[C@@H]3O[C@H](CO)[C@@H](O)[C@H](O)[C@H]3O)[C@@H](O)[C@H](O)[C@H]2O)[C@@H]2C(CO)=CC[C@H]12
[11]
  Potency: inactive

## C/C(=C\CCC1(C)C2CCC(C2)C1(C)O)C(=O)O (centres undefined)
[11]
  Potency: active: 22.4 µM

## CO[C@H]1/C=C/CCCCC(=O)O[C@@H](/C(C)=C/[C@H](C)C(=O)C[C@H](O)CC2CC(=O)NC(=O)C2)[C@@H](C)C1
[12]
  Potency: inconclusive: 16.6 µM [cytotoxic, partial curve, poor fit]
[8]
  Potency: inconclusive: 13.2 µM [cytotoxic, partial curve]
[9]
  Potency: inconclusive: 13.2 µM [inhibitor, partial curve]
[13]
  Potency: inactive
[14]
  Potency: inconclusive: 30.4 µM [activator, single point]

## CC(=O)O[C@H]1CC[C@@]2(CI)C(=CC[C@@H]3[C@@H]2CC[C@]2(C)[C@@H]([C@H](C)CCCC(C)C)CC[C@@H]32)C1
[11]
  activity change, negative = inhibition: inactive: 13.5% [at 19.1 µM]

## COc1ccc(/C=C/C(=O)O[C@H]2[C@H](O[C@H]3[C@@H]4C=CO[C@@H](O[C@@H]5O[C@H](CO)[C@@H](O)[C@H](O)[C@H]5O)[C@@H]4[C@@]4(CO)O[C@@H]34)O[C@@H](C)[C@H](O)[C@H]2OC(C)=O)cc1
[11]
  Potency: inconclusive: 15.8 µM [inhibitor, partial curve, poor fit]

## CC(C)c1ccc(CC(=O)N2CCC[C@@H](c3cccc(OC(C)(C)C(=O)O)c3)C2)cc1
[11]
  Potency: inconclusive: 25.1 µM [inhibitor, single point]

## CC1CC[C@]2(C(=O)O)CC[C@]3(C(=O)O)C(=CCC4[C@@]5(C)CC[C@H](OC6OC(C)C(O)C(OC7OC(CO)C(O)C(O)C7O)C6O)C(C)(C)C5CC[C@]43C)C2C1C (some centres undefined)
[11]
  Potency: inconclusive: 15.8 µM [inhibitor, partial curve]

## CC1CCC2(O1)C(C)(C)CC(O[C@@H]1O[C@H](CO[C@@H]3OC[C@](O)(CO)[C@H]3O)[C@@H](O)[C@H](O)[C@H]1O)CC2(C)O (some centres undefined)
[11]
  Potency: inconclusive: 35.5 µM [inhibitor, single point]

## O=C(OCC12OC1C=CC(OC(=O)c1ccccc1)C2O)c1ccccc1 (centres undefined)
[11]
  Potency: inactive

## CN1CCc2cc3c(c4c2C1(C)C(=O)c1cc(O)ccc1-4)OCO3 (centres undefined)
[2]
  Potency: inactive
[12]
  Potency: inconclusive: 33.2 µM [cytotoxic, single point]
[15]
  Potency: active: 1.18 µM
[4]
  Potency: inconclusive: 13.1 µM [cytotoxic, partial curve, poor fit]
[8]
  Potency: inactive
[16]
  Potency: inconclusive: 4.17 µM [activator, partial curve]

## C[C@H](c1cnc(N)[nH]1)c1ccc(O)c2[nH]cc(-c3cnc(-c4c[nH]c5ccccc45)c(=O)[nH]3)c12
[3]
  Potency: inconclusive: 15.3 µM [inhibitor, partial curve]
[15]
  Potency: inconclusive: 23.5 µM [cytotoxic, single point]
[4]
  Potency: inactive
[5]
  Potency: inconclusive: 16.7 µM [activator, single point]
[6]
  Potency: inconclusive: 33.1 µM [rising, single point]
[7]
  Potency: inconclusive: 24.3 µM [inhibitor, partial curve]
[17]
  Potency: inconclusive: 20.9 µM [inhibitor, partial curve]
[14]
  Potency: inconclusive: 0.171 µM [activator, full curve]

## C=C1CC[C@@H]2[C@](C)(CO[C@@H]3O[C@H](CO)[C@@H](O)[C@H](O)[C@H]3O)[C@H](O)CC[C@@]2(C)[C@@H]1C/C=C1/C(=O)OC[C@H]1O
[11]
  Potency: inconclusive: 22.4 µM [inhibitor, partial curve]

## CC(C)C1=CC2C(CC[C@]2(C)O)[C@](C)(O)CC1 (some centres undefined)
[11]
  Potency: inactive

## O[C@H]1C=C2[C@H]3CN(Cc4cc5c(cc43)OCO5)[C@H]2C[C@@H]1O
[1]
  Potency: inconclusive: 8.38 µM [cytotoxic, partial curve]
[18]
  Potency: inconclusive: 0.0132 µM [inhibitor, single point]
[8]
  Potency: inconclusive: 10.5 µM [cytotoxic, partial curve]
[9]
  Potency: active: 13.2 µM
[10]
  Potency: inactive
[13]
  Potency: inconclusive: 37.1 µM [cytotoxic, single point]

## CC(=O)O[C@H]1C[C@@H]2[C@]3(CC[C@]4(C)[C@@H](C5(C)CCC(C(C)(C)O)O5)[C@@H](O)C[C@@]24C)C[C@@]32CC[C@H](O[C@@H]3OC[C@@H](O)[C@H](O)[C@H]3O)C(C)(C)[C@H]12 (some centres undefined)
[11]
  Potency: inconclusive: 15.8 µM [inhibitor, partial curve, poor fit]
